# In PubChem BioAssay AID1508642 (National Center for Advancing Translational Sciences (NCATS), 2021):
# Screen size: about 43,000 compounds; about 200 (0.47%) were called active. The shares of active, inactive and inconclusive entries below differ from those in the screen. Calls come from the whole dose curve; as a rule, active = well fitted cell-killing curve with a large enough effect; inconclusive = small, poorly fitted or top-dose-only effect, or effect the other way; inactive = flat fitted curve, though single readings scatter. Potencies of inconclusive entries are doubtful fits and often do not repeat.
# Test: Cell viability qHTS assay in S16 Pmp22-F2sN cells; note: nearly all actives have a fitted effect of over 65% in size
# Settings: S16 Pmp22-F2sN Schwann cells (luciferase reporters placed in the Pmp22 gene) viability, CellTiter-Glo, 24 h; series mostly up to 57.5 µM
# How it was run: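 CellTiter-Glo counter-screen, qHTS, 1536-well. Cells: S16(c9) Pmp22-F2sN, 500-1,000/well in DMEM + 10% FBS. Cpd 23 nL pin transfer, 24 h, 37C/5% CO2. Read: luminescence, CCD imager.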
# Potency is the fitted concentration of half-maximal effect; tags give direction and shape of the fitted curve.
row,SMILES,Potency
1,O=C(NCC(c1cccnc1)N1CCc2ccccc21)c1ccc(Cl)cc1 (stereo not given),"inconclusive: 31.6 µM [cytotoxic, partial curve, poor fit]"
2,Cc1ccc(-n2ncc(C(=O)NCCN3CCC(Cc4ccccc4)CC3)c2C2CCN(C(=O)OC(C)(C)C)CC2)cc1,"inconclusive: 39.8 µM [cytotoxic, single point]"
3,CCc1ccc2oc(-c3cc(NC(=O)c4cccs4)ccc3Cl)nc2c1,"inconclusive: 11.2 µM [rising, partial curve, poor fit]"
4,O=C(Cc1ccc(-c2ccccc2)cc1)NCCS(=O)(=O)N1CCN(c2ccccc2F)CC1,"inconclusive: 35.5 µM [cytotoxic, single point]"
5,CCCCCOc1ccc(/C=C/C(=O)Nc2sc3c(c2C(=O)OCC)CCC3)cc1OC,inactive
6,CCc1ccc(NC(=O)c2cc(=O)c3ccc(C)c(C)c3o2)cc1,"inconclusive: 8.91 µM [cytotoxic, partial curve, poor fit]"
7,Cc1cccc(N2CCn3c2nc2c3c(=O)n(CCCc3ccccc3)c(=O)n2C)c1,"inconclusive: 2.82 µM [cytotoxic, single point]"
8,CCc1ccc(S(=O)(=O)c2nnn3c2nc(N(CC)Cc2ccccc2)c2cc(Cl)ccc23)cc1,inactive
9,Clc1cccc(Nc2ncnc3c2nc2n3CCCCC2)c1,inactive
10,COC(=O)c1ccccc1NC(=O)NCc1ccc2c(c1)CCN2C(=O)c1ccccc1,"inconclusive: 39.8 µM [cytotoxic, single point]"
11,Cc1ccc2c(c1)N(C(=O)CCC(=O)NCc1ccccc1F)CC(C)O2 (stereo not given),inactive
12,COc1ccccc1Nc1cc(C(=O)NCCCN(C)C2CCCCC2)c2ccccc2n1,"inconclusive: 28.2 µM [cytotoxic, single point]"
13,CN(C)C(=O)c1ccc(S(=O)(=O)NCc2ccc(Cl)cc2)s1,"inconclusive: 31.6 µM [cytotoxic, single point]"
14,CCCCN(CC)C(=O)CSc1nc2c(sc3ccccc32)c(=O)n1CCc1ccccc1,"inconclusive: 7.08 µM [rising, single point]"
15,COc1ccc(C(=O)NCc2cn3ccc(C)cc3n2)cc1,"inconclusive: 0.891 µM [rising, full curve]"
16,CCc1ccccc1Nc1nn2c(=O)c3ccc(C(=O)NCc4ccccc4Cl)cc3nc2s1,"inconclusive: 2.24 µM [cytotoxic, full curve, poor fit]"
17,N#C/C(=C\c1ccc(-c2ccc(C(=O)O)cc2)o1)c1nc2ccccc2[nH]1,inactive
18,Cn1c(=O)oc2cc(S(=O)(=O)N3CCC(C(=O)N4CCN(c5cccc(Cl)c5)CC4)CC3)ccc21,"inconclusive: 39.8 µM [cytotoxic, single point]"
19,COc1cc2nc(SCC(=O)Nc3cccc(C)c3)n3nc(-c4ccccc4)nc3c2cc1OC,inactive
20,CNC(=O)c1ccc(NC(=O)COc2ccc(-c3nn(C)c(=O)c4ccccc34)cc2)cc1,"inconclusive: 15.8 µM [rising, partial curve, poor fit]"

row,SMILES,Potency
1,CCOC(=O)c1[nH]c2ccccc2c1NC(=O)c1cc(OCC)c(OCC)c(OCC)c1,"inconclusive: 0.891 µM [rising, full curve, poor fit]"
2,Cc1ccc(O)c(-c2n[nH]c3c2C(c2ccccc2F)N(Cc2ccco2)C3=O)c1 (stereo not given),"inconclusive: 35.5 µM [cytotoxic, single point]"
3,O=C(NCC1CCN(Cc2ccc(F)cc2)CC1)c1cc2ccc3cccnc3c2[nH]1,"inconclusive: 39.8 µM [cytotoxic, single point]"
4,CCOc1ccc(NC(=O)Cn2c(=O)oc3cc(S(=O)(=O)N4CCC(C)CC4)ccc32)cc1,"inconclusive: 39.8 µM [cytotoxic, single point]"
5,Cc1ccc(NC(=O)CSc2nc(-c3ccco3)cc(C(F)(F)F)n2)cc1C,inactive
6,Cc1cccc(C(=O)Nc2ccc(S(=O)(=O)N3CCCCC3c3cccnc3)cc2)c1 (stereo not given),"inconclusive: 39.8 µM [cytotoxic, single point]"
7,COc1ccc(Br)cc1CNC(=O)Cn1ncn2nc(-c3cccs3)cc2c1=O,"inconclusive: 17.8 µM [cytotoxic, single point]"
8,Cc1oc(-c2ccccc2Cl)nc1CSc1nncn2c1cc1occc12,inactive
9,CCCn1ccc2c(OCC(=O)Nc3ccc(OC)c(OC)c3)cccc2c1=O,"inconclusive: 25.1 µM [cytotoxic, single point]"
10,COc1ccccc1CNC(=O)c1ccc(CSc2nc3ccncc3n2Cc2cccc(F)c2)cc1,"inconclusive: 35.5 µM [cytotoxic, partial curve, poor fit]"
11,Cc1ccc2nc(-c3ccco3)c(Nc3ccc4c(c3)OCCO4)n2c1,"inconclusive: 28.2 µM [cytotoxic, single point]"
12,Cc1cc(C)c(NC(=O)Cc2ccc(-n3c(C)nc4cccnc43)cc2)c(C)c1,"inconclusive: 28.2 µM [cytotoxic, single point]"
13,CCOc1cc(C2C(C(=O)OC)=C(C)NC3=C2C(=O)c2ccccc23)cc(Br)c1OCC (stereo not given),"inconclusive: 17.8 µM [cytotoxic, single point]"
14,Cc1ccc(CNC(=O)C2CCCN(Cc3nc(-c4cccc(C)c4)oc3C)C2)cc1 (stereo not given),"inconclusive: 25.1 µM [cytotoxic, single point]"
15,COc1ccc(-c2nc3ccccc3o2)cc1NC(=O)c1ccc(-c2cccc(Cl)c2C)o1,inactive
16,CCN(CC)CCNC(=O)c1ccc2c(=O)n3nc(Nc4ccccc4)sc3nc2c1,"inconclusive: 39.8 µM [cytotoxic, single point]"
17,Cc1ccc2oc(C(=O)Nc3ccc(S(=O)(=O)Nc4nc(C)cc(C)n4)cc3)cc(=O)c2c1,"inconclusive: 28.2 µM [cytotoxic, single point]"
18,Cc1csc2nc(-c3cccc(NC(=O)c4c(F)cccc4F)c3)cn12,"inconclusive: 1.58 µM [rising, partial curve, poor fit]"
19,COc1ccc(C(=O)OCc2cc(=O)n3nc(C4CC4)sc3n2)cc1OC,"inconclusive: 3.98 µM [rising, single point]"
20,O=C(Nc1ccc(S(=O)(=O)N(Cc2ccccc2)c2ccccc2)cc1)c1ccc(F)cc1,"inconclusive: 28.2 µM [cytotoxic, single point]"

row,SMILES,Potency
1,Cc1nn(C(C)(C)C)c(OC(=O)c2c(F)cccc2F)c1Sc1ccccc1,"inconclusive: 28.2 µM [cytotoxic, partial curve, poor fit]"
2,COc1cc(CNc2ccc3[nH]c(=O)[nH]c3c2)cc(Cl)c1OCc1ccc(F)cc1,inactive
3,CC(C)Cn1cc(C(=O)N2CCN(c3cccc(Cl)c3)CC2)c2c3ccccc3n(C)c2c1=O,"inconclusive: 35.5 µM [cytotoxic, single point]"
4,CCOc1cc2[nH]c(=O)n(CCCC(=O)N3CCN(c4cccc(Cl)c4)CC3)c(=O)c2cc1OCC,"inconclusive: 39.8 µM [cytotoxic, single point]"
5,COc1ccc(OC)c(CNc2sc3c(c2C(=O)Nc2cc(OC)ccc2OC)CCCC3)c1,"inconclusive: 25.1 µM [cytotoxic, partial curve, poor fit]"
6,CCCCc1ccc(NC(=O)c2ccc3c(c2)CCN3S(=O)(=O)c2ccccc2)cc1,"inconclusive: 28.2 µM [cytotoxic, single point]"
7,CCC1=C(c2ccc(C)cc2)S(=O)(=O)N=C1N1CCC(C(=O)NCc2ccccc2Cl)CC1,"inconclusive: 39.8 µM [cytotoxic, partial curve, poor fit]"
8,CCOC(=O)c1ccc(CN(Cc2ccc(C)cc2)S(=O)(=O)c2ccc(NC(C)=O)cc2)cc1,"inconclusive: 39.8 µM [cytotoxic, single point]"
9,CCn1cc2nc(SCc3ccc(F)cc3)n(Cc3ccc(Cl)cc3)c(=O)c2n1,"inconclusive: 8.91 µM [cytotoxic, partial curve, poor fit]"
10,Cc1c(Cl)cccc1-n1ncc(C(=O)Nc2ccc(F)cc2F)c1C1CCN(C(=O)OC(C)(C)C)CC1,"inconclusive: 39.8 µM [cytotoxic, single point]"
11,COC(=O)C1CCN(C(c2ccccc2)c2sc3nc(-c4ccco4)nn3c2O)CC1 (stereo not given),inactive
12,O=C1CC(c2nc(-c3ccccc3)no2)CN1c1ccc2c(c1)OCCO2 (stereo not given),"inconclusive: 0.501 µM [cytotoxic, full curve, poor fit]"
13,Cc1ccc(CNC(=O)C2CCN(C(=O)c3cnn(-c4ccccc4)c3-n3cccc3)CC2)cc1,"inconclusive: 31.6 µM [cytotoxic, single point]"
14,COCCN1Cc2cccc(C(=O)Nc3ccc(Cl)cc3Cl)c2C1=O,inactive
15,Cc1ccccc1CNC(=O)C(=O)NCC(c1cccs1)S(=O)(=O)c1ccc(Cl)cc1 (stereo not given),inactive
16,CC(=O)N1CCCc2cc(S(=O)(=O)N3CCCC(C(=O)N4CCN(c5cc(C)ccc5C)CC4)C3)ccc21 (stereo not given),"inconclusive: 14.1 µM [cytotoxic, partial curve]"
17,Cc1ccc(OC(=O)CSc2nnc(CNC(=O)c3ccccc3)o2)cc1,inactive
18,CCCS(=O)(=O)c1nc(S(=O)(=O)c2ccc(C)cc2)c(NCc2ccccc2)s1,inactive
19,CCOC(=O)c1ccc(N2C(=O)c3n[nH]c(-c4cccs4)c3C2c2ccc(Cl)cc2Cl)cc1 (stereo not given),"inconclusive: 39.8 µM [cytotoxic, single point]"
20,COc1ccc(CCNC(=O)c2ccc(CNS(=O)(=O)c3ccccc3)cc2)cc1OC,"inconclusive: 2.82 µM [rising, full curve, poor fit]"
